Laboratory results from patent publication US20230192660A1 (priority 2020, published 2023).

What was measured:
Caco-2 cells = settings: read-out: CC50 Caco-2; 72h incubation
Experimental: (§1) The cytotoxicity of selected compounds was assessed in Caco2, Huh7 and A549-ACE2 cells after a 72h incubation with the compounds. Specifically, cell viability in the presence of compound was quantified using the CellTiter-Glo 2.0 assay (Promega) and normalized against controls containing an equivalent amounts of DMSO.

A549-ACE2 cells = settings: read-out: CC50 A549-ACE2; 72h incubation
Experimental: as §1

## CC(C)C[C@H](NC(=O)OCc1ccccc1)C(=O)N[C@@H](CC1CCNC1=O)C(O)S(=O)(=O)[O-].[Na+] (stereo partly shown) [GC-376, reference compound]
Caco-2 cells
  CC50: > 100 µM
A549-ACE2 cells
  CC50: > 100 µM

## CC(C)(C)NC(=O)N[C@H](C(=O)N1C[C@H]2[C@@H]([C@H]1C(=O)N[C@@H](C[C@@H]1CCNC1=O)C(=O)C(N)=O)C2(C)C)C(C)(C)C [ML1000]
Caco-2 cells
  CC50: > 100 µM
A549-ACE2 cells
  CC50: > 100 µM
